# Measured values reported in the supplement of paper PMC8728848.
# The list shows a part of the results.
# Columns and labels:
# Assay in all cases: glycan array binding signal (z-score within array); higher = stronger binding
# Conditions in all cases: glycan notation: IUPAC condensed, linker removed
# GlcNAc(b1-3)Man = target: GlcNAc(b1-3)Man
# In short: (§1)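 Glycan array data came from 3228 arrays in the Consortium for Functional Glycomics database, and only arrays with an available protein sequence were kept. Glycan names were put into IUPAC-condensed notation, and columns mapping to the same glycan were averaged. The binding signal is a within-array Z-score, averaged across arrays of one protein sequence run at different concentrations or buffers and across linkers. A negative Z-score can be read as non-binding.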
# [1] = target: GlcNAc(b1-3)[GlcNAc(b1-4)][GlcNAc(b1-6)]GlcNAc
# In short: as §1
# [2] = target: GlcNAc(b1-3)[GlcNAc(b1-6)]Gal(b1-4)GlcNAc
# In short: as §1
# [3] = target: GlcNAc(b1-3)[GlcNAc(b1-6)]GalNAc
# In short: as §1
# [4] = target: GlcNAc(b1-4)Gal(b1-4)GlcNAc
# In short: as §1
# GlcNAc(b1-4)GlcNAc = target: GlcNAc(b1-4)GlcNAc
# In short: as §1
# [5] = target: GlcNAc(b1-4)GlcNAc(b1-4)GlcNAc
# In short: as §1
# [6] = target: GlcNAc(b1-4)GlcNAc(b1-4)GlcNAc(b1-4)GlcNAc(b1-4)GlcNAc
# In short: as §1
# [7] = target: GlcNAc(b1-4)GlcNAc(b1-4)GlcNAc(b1-4)GlcNAc(b1-4)GlcNAc(b1-4)GlcNAc
# In short: as §1
# [8] = target: GlcNAc(b1-4)[GlcNAc(b1-6)]GalNAc
# In short: as §1
# [9] = target: GlcNAc(b1-6)Gal(b1-4)GlcNAc
# In short: as §1
# GlcNAc(b1-6)GalNAc = target: GlcNAc(b1-6)GalNAc
# In short: as §1
# [10] = target: GlcNAc6S(b1-3)Gal(b1-4)GlcNAc
# In short: as §1
# Kdn(a2-3)Gal(b1-3)GalNAc = target: Kdn(a2-3)Gal(b1-3)GalNAc
# In short: as §1
# Kdn(a2-3)Gal(b1-3)GlcNAc = target: Kdn(a2-3)Gal(b1-3)GlcNAc
# In short: as §1
# Kdn(a2-3)Gal(b1-4)Glc = target: Kdn(a2-3)Gal(b1-4)Glc
# In short: as §1
# Kdn(a2-3)Gal(b1-4)GlcNAc = target: Kdn(a2-3)Gal(b1-4)GlcNAc
# In short: as §1
# [11] = target: Kdn(a2-3)Gal(b1-4)[Fuc(a1-3)]GlcNAc
# In short: as §1
# Kdn(a2-6)Gal(b1-4)GlcNAc = target: Kdn(a2-6)Gal(b1-4)GlcNAc
# In short: as §1
# [12] = target: Man(a1-2)Man(a1-2)Man(a1-3)Man
# In short: as §1
# [13] = target: Man(a1-2)Man(a1-2)Man(a1-6)[Man(a1-3)]Man
# In short: as §1
# Man(a1-2)Man(a1-3)Man = target: Man(a1-2)Man(a1-3)Man
# In short: as §1
# [14] = target: Man(a1-2)Man(a1-3)[Man(a1-2)Man(a1-6)]Man
# In short: as §1
# [15] = target: Man(a1-2)Man(a1-3)[Man(a1-2)Man(a1-6)]Man(a1-6)[Man(a1-2)Man(a1-2)Man(a1-3)]Man
# In short: as §1
# [16] = target: Man(a1-2)Man(a1-3)[Man(a1-2)Man(a1-6)]Man(a1-6)[Man(a1-2)Man(a1-2)Man(a1-3)]Man(b1-4)GlcNAc(b1-4)GlcNAc
# In short: as §1
# [17] = target: Man(a1-2)Man(a1-3)[Man(a1-6)]Man(a1-6)[Man(a1-2)Man(a1-3)]Man(b1-4)GlcNAc(b1-4)GlcNAc
# In short: as §1
# [18] = target: Man(a1-2)Man(a1-6)[Man(a1-3)]Man(a1-6)[Man(a1-2)Man(a1-2)Man(a1-3)]Man
# In short: as §1
# [19] = target: Man(a1-2)Man(a1-6)[Man(a1-3)]Man(a1-6)[Man(a1-2)Man(a1-2)Man(a1-3)]Man(b1-4)GlcNAc(b1-4)GlcNAc
# In short: as §1
# Man(a1-3)[Man(a1-6)]Man = target: Man(a1-3)[Man(a1-6)]Man
# In short: as §1
# [20] = target: Man(a1-3)[Man(a1-6)]Man(a1-6)[Man(a1-2)Man(a1-3)]Man(b1-4)GlcNAc(b1-4)GlcNAc
# In short: as §1
# [21] = target: Man(a1-3)[Man(a1-6)]Man(a1-6)[Man(a1-3)]Man
# In short: as §1
# [22] = target: Man(a1-3)[Man(a1-6)]Man(a1-6)[Man(a1-3)]Man(b1-4)GlcNAc(b1-4)GlcNAc
# In short: as §1
# [23] = target: Man(a1-3)[Man(a1-6)]Man(b1-4)GlcNAc(b1-4)GlcNAc
# In short: as §1
# [24] = target: Man(a1-3)[Man(a1-6)]Man(b1-4)GlcNAc(b1-4)[Fuc(a1-6)]GlcNAc
# In short: as §1
# Man(a1-6)Man = target: Man(a1-6)Man
# In short: as §1
# Man(b1-4)GlcNAc = target: Man(b1-4)GlcNAc
# In short: as §1
# MurNAc(b1-4)GlcNAc = target: MurNAc(b1-4)GlcNAc
# In short: as §1
# Neu5Ac(a2-3)Gal = target: Neu5Ac(a2-3)Gal
# In short: as §1
binder,measurement,setting,value
B160 (Bifidobacterium sp) (protein) MVSHNKRIVAALAAVAAMGIGLAGCGGSDTAGDTKSGSDGGVVNITYMHRLPDSEGMTLVNDIVAKWNKEHPNIQVKATKFDGNAADMIKKLETDVKAGNAPDLAQVGYAEVPEVFTKGLLQDVTDEAAKYKDDFASGPFALMQVDGKTYGLPQDTGPLTYFYNAAEFEKLGITVPKTADELIETAKKTAAQGKYIMTFTPDEAMMMMSGQAGASGPWYKVDGNSWVVNTQTKGSKAVADVYQQLIDNKAALTNPRWDASFDNSIQSGQLIGTVAAAWEAPLFIDSAGGTGAGEWKVTQLGDWFGNGTKTGANGGSGVAVLKGSKHPAEAMEFLDWFNTQVDDLVSQGLVVAATTADAKTPQKWSDYFSGQDVMAEFKTANDNMGDFTYMPGFSAVGAAMKQTAAKAADGSAKVSDVFDTAQKTSVDTLKNLGLSVKE,glycan array binding signal (z-score),GlcNAc(b1-3)Man,-0.156
same,glycan array binding signal (z-score),[1],-0.174
same,glycan array binding signal (z-score),[2],-0.156
same,glycan array binding signal (z-score),[3],-0.163
same,glycan array binding signal (z-score),[4],-0.161
same,glycan array binding signal (z-score),GlcNAc(b1-4)GlcNAc,-0.184
same,glycan array binding signal (z-score),[5],-0.167
same,glycan array binding signal (z-score),[6],-0.164
same,glycan array binding signal (z-score),[7],-0.174
same,glycan array binding signal (z-score),[8],-0.173
same,glycan array binding signal (z-score),[9],-0.148
same,glycan array binding signal (z-score),GlcNAc(b1-6)GalNAc,-0.184
same,glycan array binding signal (z-score),[10],-0.166
same,glycan array binding signal (z-score),Kdn(a2-3)Gal(b1-3)GalNAc,-0.125
same,glycan array binding signal (z-score),Kdn(a2-3)Gal(b1-3)GlcNAc,-0.172
same,glycan array binding signal (z-score),Kdn(a2-3)Gal(b1-4)Glc,-0.184
same,glycan array binding signal (z-score),Kdn(a2-3)Gal(b1-4)GlcNAc,-0.178
same,glycan array binding signal (z-score),[11],-0.125
same,glycan array binding signal (z-score),Kdn(a2-6)Gal(b1-4)GlcNAc,-0.156
same,glycan array binding signal (z-score),[12],-0.159
same,glycan array binding signal (z-score),[13],-0.142
same,glycan array binding signal (z-score),Man(a1-2)Man(a1-3)Man,-0.194
same,glycan array binding signal (z-score),[14],-0.183
same,glycan array binding signal (z-score),[15],-0.161
same,glycan array binding signal (z-score),[16],-0.145
same,glycan array binding signal (z-score),[17],-0.171
same,glycan array binding signal (z-score),[18],-0.178
same,glycan array binding signal (z-score),[19],-0.164
same,glycan array binding signal (z-score),Man(a1-3)[Man(a1-6)]Man,-0.135
same,glycan array binding signal (z-score),[20],-0.141
same,glycan array binding signal (z-score),[21],-0.201
same,glycan array binding signal (z-score),[22],-0.142
same,glycan array binding signal (z-score),[23],-0.17
same,glycan array binding signal (z-score),[24],-0.146
same,glycan array binding signal (z-score),Man(a1-6)Man,-0.157
same,glycan array binding signal (z-score),Man(b1-4)GlcNAc,-0.161
same,glycan array binding signal (z-score),MurNAc(b1-4)GlcNAc,-0.171
same,glycan array binding signal (z-score),Neu5Ac(a2-3)Gal,-0.174
